In PubChem BioAssay AID624296 (National Center for Advancing Translational Sciences (NCATS), 2012):
Screen size: about 350,000 compounds; about 9,900 (2.8%) were called active. Inconclusive means that the source gave no clear call. Such entries were picked first, then a sample of the others. Calls follow the shape of the dose curve; as a rule, active = well fitted activation curve with a large enough effect; inconclusive = small, poorly fitted or top-dose-only effect; inactive = no such curve, though single readings can be large or run the other way. Potencies of inconclusive entries are left out as doubtful fits.

Test: A quantitative high throughput screen for small molecules that induce DNA re-replication in MCF 10a normal breast cells. Also: nearly all actives have a fitted effect of over 50% in size. As to activity, positive = re-replication: % of control where 0% means no effect.
Conditions: MCF 10A DNA re-replication, Hoechst nuclear intensity, 48 h; activity, positive = re-replication: at 46.1 µM (top of the series)
Potency is read from the fitted curve at half-maximal effect; tags tell the direction and shape of the fitted curve.

Row | SMILES | Potency | activity, positive = re-replication
1 | Cc1c(N=Nc2c(O)n(-c3ccc(Br)cc3)c(=O)[nH]c2=O)c(=O)n(-c2ccccc2)n1C | inconclusive [activator, partial curve, poor fit] | 
2 | Cc1nn(Cc2ccccc2)c(Cl)c1C(=O)OC(C)C(=O)Nc1ccc(F)cc1Cl (stereo not drawn) | active: 20.6 µM | 
3 | COCCCn1c(N)c(C(=O)Nc2ccccc2)c2nc3ccccc3nc21 | inconclusive [activator, partial curve, poor fit] | 
4 | CC1=C(O)C(=O)C=C2C1=CC=C1C2(C)CCC2(C)C3CC(C)(C(=O)O)CCC3(C)CCC12C (stereo not drawn) | inconclusive [activator, full curve, poor fit] | 
5 | CCOc1cc2c(cc1OCC)-n1cccc1C(c1cc(C)c(OC)cc1C)NC2 (stereo not drawn) | inconclusive [activator, single point] | 
6 | CC[n+]1c(SC)ccc2cc(OC)ccc21 | inconclusive [activator, partial curve, poor fit] | 
7 | O=[N+]([O-])c1cccc(NP(=O)(N2CC2)N2CC2)c1 | inconclusive [activator, partial curve, poor fit] | 
8 | CN(C)c1ccc(/C=C/c2cc[n+](C)c3ccccc23)cc1 | inconclusive [activator, partial curve, poor fit] | 
9 | O=C(c1ccccc1)N1CCN(CCc2ccccc2)CC1 | inconclusive [activator, partial curve, poor fit] | 
10 | CC(=O)OC(C)(C)/C=C/C(=O)C(C)(O)C1C(O)CC2(C)C3CC=C4C(CC(O)C(=O)C4(C)C)C3(C)C(=O)CC12C (stereo not drawn) |  | inconclusive: 67.1% [activator]
11 | CC(C)[C@H]1C(=O)O[C@H](C(C)C)C(=O)N(C)[C@@H](C(C)C)C(=O)O[C@H](C(C)C)C(=O)N(C)[C@@H](C(C)C)C(=O)O[C@H](C(C)C)C(=O)N1C | inconclusive [activator, partial curve, poor fit] | 
12 | CC(=O)OC1CCC2(C)C(CCC3C4CC(N5CC5)C(C(C)=O)C4(C)CC(=O)C32)C1 (stereo not drawn) | inconclusive [activator, single point] | 
13 | O=c1[nH]c2ccccc2n1CCCN1CCC(n2c(=O)[nH]c3cc(Cl)ccc32)CC1 | inconclusive [activator, single point] | 
14 | CCOC(=O)c1ccc(NC(=O)c2c(O)[nH]c(=O)[nH]c2=O)cc1 |  | inactive: -0.304%
15 | Cn1cccc1/C=C1/C(=O)NC(=O)N(C(C)(C)C)C1=O |  | inactive: 1.14%
16 | CCN(CC)c1ccc(/C=N/c2sc3c(c2C#N)C2CCN3CC2)c(O)c1 | inconclusive [activator, partial curve] | 
17 | O=C1NC(=O)C(=Cc2cccs2)C(=O)N1 | inconclusive [activator, partial curve, poor fit] | 
18 | CN1C2CCC1/C(=C/c1ccccn1)C(=O)/C2=C\c1ccccn1 | inconclusive [activator, partial curve, poor fit] | 
19 | Cc1ccc(NC(=O)CN2C(=O)CN=C(c3ccccc3)c3cc(Cl)ccc32)cc1 | inconclusive [activator, single point] | 
20 | C[C@H]1CC[C@@H]2[C@@H](C)[C@H]3[C@H](C[C@H]4[C@@H]5CC=C6CC(O[C@@H]7O[C@H](CO)[C@H](O)[C@H](O[C@@H]8O[C@H](CO)[C@@H](O)[C@H](O)[C@H]8O)[C@H]7O[C@H]7O[C@@H](C)[C@H](O)[C@@H](O)[C@H]7O)CC[C@]6(C)[C@H]5CC[C@]34C)N2C1 (stereo partly drawn) |  | inactive: 8.24%

Row | SMILES | Potency | activity, positive = re-replication
21 | COC(=O)C1=C(c2ccc(F)cc2F)C[C@@H]2CC[C@H]1N2C(=O)N1CCCCC1 | inconclusive [activator, single point] | 
22 | O=C(CCS(=O)(=O)c1ccccc1)Nc1nnc(-c2ccco2)o1 | inconclusive [activator, single point] | 
23 | COc1ccc(N/N=C/c2c(O)n(-c3cccc(C)c3)c(=O)[nH]c2=O)cc1 | inconclusive [activator, single point] | 
24 | Cc1ccc(OCC(=O)N2CCN(Cc3ccc4c(c3)OCO4)CC2)cc1C | inconclusive [activator, single point] | 
25 | CCOc1ccc(N=Cc2c(O)n(-c3ccc(C)c(C)c3)c(=O)[nH]c2=O)cc1 | inconclusive [activator, single point] | 
26 | O=C1C2CCCN2C(c2cccs2)N1c1ccc(Cl)cc1 (stereo not drawn) | inconclusive [activator, partial curve, poor fit] | 
27 | O=C(O)CCn1cc(C=C2C(=O)NC(=O)NC2=O)c(-c2ccc(Br)cc2)n1 | inconclusive [activator, single point] | 
28 | CC(=Nc1ccc(F)cc1)c1c(O)n(C)c(=O)[nH]c1=O | inconclusive [activator, partial curve, poor fit] | 
29 | O=C1c2ccccc2S(=O)(=O)c2cc(C(=O)N3CCN(c4c(Cl)cncc4Cl)CC3)ccc21 | inconclusive [activator, partial curve, poor fit] | 
30 | Cc1ccc(N=CN(C)C=Nc2ccc(C)cc2C)c(C)c1 |  | inactive: 1.56%
31 | O=C1C(Cl)=CC(=Nc2ccc(O)cc2)C=C1Cl | inconclusive [activator, single point] | 
32 | Oc1ccc(C[C@H]2NCCc3cc(O)c(O)cc32)cc1O | inconclusive [activator, partial curve, poor fit] | 
33 | COC(=O)C(O)(c1ccc(NC(=S)NC(=O)c2ccc(Cl)cc2Cl)c(C)c1)C(F)(F)F (stereo not drawn) | inconclusive [activator, single point] | 
34 | COc1ccc(-c2cc(=O)oc3c(C)c(OC(C)C(=O)N4C[C@H]5C[C@@H](C4)c4cccc(=O)n4C5)ccc23)cc1 (stereo partly drawn) | inconclusive [activator, full curve, poor fit] | 
35 | Cc1cc(C)n(-c2ccc(NN=C(C#N)C#N)cc2)n1 | inconclusive [activator, single point] | 
36 | C[C@]12CCC3C(CC[C@H]4C[C@H](O)CC[C@]34C)C1CC(=O)[C@@H]2O (stereo partly drawn) |  | inactive: 0.648%
37 | CNC1(c2ccccc2Cl)CCCCC1=O (stereo not drawn) | inconclusive [activator, full curve, poor fit] | 
38 | C[C@]12CCC3C(CC[C@H]4[C@H](O)[C@H](O)CC[C@]34C)C1CCC2=O (stereo partly drawn) |  | inactive: -8.95%
39 | COc1ccc(N2C(=O)/C(=C/c3cccs3)C(=O)NC2=S)cc1 | inconclusive [activator, single point] | 
40 | CC12CCCCC1=NC(c1ccc(Br)cc1)N2O (stereo not drawn) | inconclusive [activator, partial curve, poor fit] | 

Row | SMILES | Potency | activity, positive = re-replication
41 | CC(=O)OC(C)(C)/C=C/C(=O)[C@](C)(O)[C@H]1[C@H](O)C[C@@]2(C)[C@@H]3CC=C4[C@H](C[C@H](O)C(=O)C4(C)C)[C@]3(C)C(=O)C[C@]12C | inconclusive [activator, full curve, poor fit] | 
42 | C=CCN1CC[C@]23c4c5ccc(O)c4O[C@H]2/C(=N/NC(=O)c2ccccc2)CC[C@@]3(O)[C@H]1C5 | inconclusive [activator, single point] | 
43 | C=C1C(=O)O[C@@H]2C[C@@H](C)[C@@H]3C4OC4C(=O)[C@@]3(C)[C@@H](O)[C@H]12 (stereo partly drawn) | inconclusive [activator, full curve, poor fit] | 
44 | COCCCNC(=S)NCCCNc1nc2cc(C)cc(C)c2cc1C#N | inconclusive [activator, single point] | 
45 | CC(C)CCOC(=O)c1c(N)n(CC2CCCO2)c2nc3ccccc3nc12 (stereo not drawn) | inconclusive [activator, single point] | 
46 | COc1ccc(Sc2cnn(-c3ccccc3)c(=O)c2Cl)cc1 | inconclusive [activator, single point] | 
47 | CCCCNc1ccncc1S(=O)(=O)NC(=O)NC(C)C | inconclusive [activator, single point] | 
48 | O=Cc1cn(Cc2ccc([N+](=O)[O-])cc2)c2ccccc12 | active: 18.4 µM | 
49 | Cc1cc(NC(=O)CCl)no1 | inconclusive [activator, single point] | 
50 | CN1C2C=C(N(C(=O)c3ccc(Cl)cc3)c3ccccc3)CC1CC2 (stereo not drawn) | inconclusive [activator, partial curve, poor fit] | 
51 | O=C(O)c1ccc(/C=C/c2nc3ccccc3c(=O)n2-c2ccc(Br)cc2)cc1 | inconclusive [activator, single point] | 
52 | CNC(C)C(O)c1ccc(O)cc1 (stereo not drawn) |  | inactive: 6.91%
53 | COc1cc(CN2CCCC(CCC(=O)NCc3ccc(C)o3)C2)cc2c1OCO2 (stereo not drawn) | inconclusive [activator, partial curve, poor fit] | 
54 | N#CC1=C(N)Oc2c(c(=O)oc3ccccc23)C1c1ccncc1 (stereo not drawn) |  | inactive: 7.86%
55 | COc1ccccc1CCNC1CCCCCC1 |  | inactive: 3.98%
56 | CC1N(C)c2cc(NC(=O)c3ccco3)c(P(=O)(Nc3ccc([N+](=O)[O-])cc3)N3CCOCC3)cc2C1(C)C (stereo not drawn) | inconclusive [activator, partial curve, poor fit] | 
57 | COc1ccc(Br)cc1CN1CCN(CCO)CC1 | inconclusive [activator, partial curve, poor fit] | 
58 | CC[C@H]1CN2CCC1C[C@@H]2[C@@H](O)c1ccnc2ccc(OC)cc12 (stereo partly drawn) | inconclusive [activator, single point] | 
